Measurements taken from PubChem BioAssay (NCI).
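Interpolation was linear, between the two tested concentrations surrounding the appropriate level; five concentrations were tested over 48 hours in 96-well plates. The concentration for 50% growth inhibition is given as GI50. TGI marks complete inhibition of growth.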

System: NCI-H322M lung
Test: NCI anticancer screen, dose series, 48 h

First: COc1cccc(C(N)=Nc2ccc(OCCCCCCn3cncn3)cc2)c1
Second: COc1ccc(-c2nc(Nc3ccccc3S(N)(=O)=O)c3ccccc3n2)cc1
The GI50 of the first is 3.4-fold lower: 5.44 µM for the first, 18.4 µM for the second.

Compared with Cc1ccc(S(=O)(=O)c2nc(S(=O)(=O)c3ccc(C)cc3)c(Cl)s2)cc1, COc1cc2c3c(n(CCCN4CCC[C@@H]4CO)c(=O)c2cc1OC)-c1cc2c(cc1C3=O)OCO2 is lower in GI50: greater than 100 µM for the first, 1.26 µM for the second.

COc1cccc(C(N)=Nc2ccc(OCCCCCCn3cncn3)cc2)c1 and COc1ccc(-c2nc(Nc3ccccc3S(N)(=O)=O)c3ccccc3n2)cc1 cannot be ordered by TGI: greater than 100 µM for the first, greater than 100 µM for the second.

Going from Cc1ccc(S(=O)(=O)c2nc(S(=O)(=O)c3ccc(C)cc3)c(Cl)s2)cc1 to COc1cc2c3c(n(CCCN4CCC[C@@H]4CO)c(=O)c2cc1OC)-c1cc2c(cc1C3=O)OCO2, the TGI falls from greater than 100 µM to 2.73 µM.
